# Assay results from PubChem BioAssay AID588591 (National Center for Advancing Translational Sciences (NCATS), 2011).
# Hit rate of the full screen: of about 390,000 compounds, about 4,700 (1.2%) were called active. Inconclusive means that the source gave no clear call. Such entries were picked first, then a sample of the others. The call rests on the fitted dose curve; in most records, active means well fitted inhibition curve with a large enough effect; inconclusive means small, poorly fitted or top-dose-only effect, or another doubt; inactive means no such curve, though single readings can be large or run the other way. Where the call is inconclusive, the potency comes from a doubtful curve fit.
# Target: DNA polymerase eta (Homo sapiens) (UniProt Q9Y253)
# Chain of UniProt Q9Y253 (Q9Y253 whole entry, looked up): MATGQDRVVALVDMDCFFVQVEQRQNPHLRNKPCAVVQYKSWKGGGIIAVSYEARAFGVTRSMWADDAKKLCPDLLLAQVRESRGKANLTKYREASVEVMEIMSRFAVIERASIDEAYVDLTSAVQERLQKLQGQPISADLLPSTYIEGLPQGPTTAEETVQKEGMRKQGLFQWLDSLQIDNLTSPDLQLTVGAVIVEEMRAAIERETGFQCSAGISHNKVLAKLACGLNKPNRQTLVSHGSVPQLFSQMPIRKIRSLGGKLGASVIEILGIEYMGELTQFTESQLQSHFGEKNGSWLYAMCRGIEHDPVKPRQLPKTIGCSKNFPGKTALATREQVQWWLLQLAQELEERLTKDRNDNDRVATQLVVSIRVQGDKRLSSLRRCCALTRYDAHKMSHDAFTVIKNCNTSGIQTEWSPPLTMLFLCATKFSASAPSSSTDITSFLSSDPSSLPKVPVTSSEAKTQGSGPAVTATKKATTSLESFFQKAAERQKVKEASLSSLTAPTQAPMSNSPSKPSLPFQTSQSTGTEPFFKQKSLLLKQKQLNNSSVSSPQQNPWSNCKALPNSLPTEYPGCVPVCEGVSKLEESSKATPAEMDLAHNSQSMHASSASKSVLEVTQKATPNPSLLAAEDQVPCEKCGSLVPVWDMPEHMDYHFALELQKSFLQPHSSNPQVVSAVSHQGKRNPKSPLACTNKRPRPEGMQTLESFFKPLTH
# Assay: qHTS for Inhibitors of Polymerase Eta
# Conditions: recombinant Pol eta, fluorescent DNA replication assay; series mostly up to 114 µM
# Excerpt: The Y-family of DNA polymerases, such as Pol eta, are specifically involved in DNA repair. Pol eta copies undamaged DNA with a lower fidelity than other DNA-directed polymerases. However, it accurately replicates UV-damaged DNA; when thymine dimers are present, this polymerase inserts the complementary nucleotides in the newly synthesized DNA, thereby bypassing the lesion and suppressing the mutagenic effect of UV-induced DNA damage. […] Thus, while pol eta's (and most likely iota's) normal function is to protect humans against the deleterious consequences of DNA damage, under certain conditions they can have deleterious effects on human health. As a consequence, we propose to utilize a high throughput replication assay to identify small molecule inhibitors of pol eta. In a collaboration between the National Institute of Child Health & Human Development (NICHD) and NIH Chemical Genomics Center, a high-throughput, fluorescent screen was developed to screen the NIH Molecular Libraries Small Molecule Repository (MLSMR). This screen is used to identify inhibitors of pol eta. NIH Chemical Genomics Center [NCGC] NIH Molecular Libraries Probe Centers Network [MLPCN] MLPCN Grant: MH090825 Assay Submitter (PI): Roger Woodgate, NICHD)
# Three microliters of reagents (buffer in column 3 and 4 as negative control and 10 nM Pol eta in columns 1, 2, and 5-48) were dispensed into a 1,536-well black solid-bottomed plate. Compounds (23 nL) were transferred via Kalypsys pin tool equipped with 1536-pin array. The plates were then incubated for 15 min at room temperature, and 1 µL substrate (50 nM final concentration) was added to start the reaction and kinetically read twice at 0 min and 10 min on the Viewlux reader
# Potency means the concentration at half of the fitted maximal effect; tags describe the fitted curve by direction and shape.
row,SMILES,Potency
1,COc1cc(C(c2c(C)[nH][nH]c2=O)c2c(C)[nH][nH]c2=O)ccc1OC(=O)c1cccc([N+](=O)[O-])c1,inactive
2,O=C(COC(=O)Cc1ccc(Br)cc1)NCc1ccc2c(c1)OCO2,inactive
3,CC(=O)c1ccc(-n2c(CCC(=O)O)ccc2-c2cccs2)cc1,"inconclusive: 89.1 µM [inhibitor, partial curve, poor fit]"
4,COc1ccc2c(c1)CC(C1(O)C(=O)Nc3ccccc31)C2=O (centres undefined),"inconclusive: 25.1 µM [inhibitor, single point]"
5,CCOc1ccc(CNC(=O)Cn2nc(C)c3c(C)n(-c4ccc(C)cc4)nc3c2=O)cc1,"inconclusive: 22.4 µM [inhibitor, full curve, poor fit]"
6,Cc1cc(C)c2c(CCl)cc(=O)oc2c1,"inconclusive: 50.1 µM [inhibitor, partial curve, poor fit]"
7,O=C(O)CSc1nc2ccc(NC(=O)COc3ccc(Cl)cc3)cc2s1,active: 11.2 µM
8,O=C(CCN1C(=O)/C(=C\c2ccccc2)SC1=S)Nc1ccc(C(=O)O)cc1,inactive
9,O=C(CS(=O)(=O)c1cccc2nsnc12)NCc1ccccc1,inactive
10,Cc1nn(-c2ccccc2)c(Cl)c1CN(C(=O)CCl)c1cccc2ccccc12,"inconclusive: 22.4 µM [inhibitor, full curve]"
11,CCOC(=O)C1CCN(C(=O)C(C)Sc2nnc3ccccn23)CC1 (centres undefined),"inconclusive: 89.1 µM [inhibitor, partial curve, poor fit]"
12,N#Cc1c(N2CCN(c3ccc(F)cc3)CC2)nc(N)c2c(N)nc3c(c12)CC(=O)N3C1CC1,inactive
13,O=S(=O)(c1ccc(Cl)cc1)c1nnn2c1nc(NC1CCCCC1)c1sccc12,inactive
14,COc1cccc(N2CCN(C(=O)c3ccc(=O)oc3)CC2C)c1 (centres undefined),"inconclusive: 14.1 µM [inhibitor, full curve, poor fit]"
15,O=C1COc2ccc(-c3csc(=Nc4ccc(OC(F)F)cc4)n3CC3CCCO3)cc2N1 (centres undefined),"inconclusive: 79.4 µM [inhibitor, partial curve, poor fit]"
16,COCCCn1c(=O)/c(=C\c2cccc(OC)c2OC)s/c1=C(/C#N)C(=O)Nc1ccc(C(=O)O)cc1,"inconclusive: 14.1 µM [inhibitor, partial curve, poor fit]"
17,CC(C)(C)SC(=O)CC1NS(=O)(=O)OCC1NC(=O)OCC(Cl)(Cl)Cl (centres undefined),inactive
18,Cc1cc(C)n2nc(SCc3cc(=O)oc4ccc5ccccc5c34)nc2n1,"inconclusive: 35.5 µM [inhibitor, single point]"
19,Cc1ccc(C)c(NC(=O)CN(C)C(=O)c2ccc(-c3ccc(Cl)cc3)o2)c1,"inconclusive: 79.4 µM [inhibitor, partial curve]"
20,Cc1ccccc1S(=O)Cc1ccc(C(=O)NCCN2CCOCC2)o1 (centres undefined),inactive
21,COc1cc2c(cc1OC)-c1cc3ccc4c(c3c[n+]1CC2)OCO4,"inconclusive: 35.5 µM [inhibitor, partial curve, poor fit]"
22,CC/C(C)=N/Nc1nc(-c2cc3cccc(OC)c3oc2=O)cs1,active: 50.1 µM
23,CSc1nc(C(=O)N2CCCC(N3CCN(c4ccccc4C)CC3)C2)cs1 (centres undefined),inactive

row,SMILES,Potency
1,Cc1cc(S(=O)(=O)Nc2nc(CN3CCOCC3)nc3sc4c(c23)CCC4)ccc1F,"inconclusive: 14.1 µM [inhibitor, full curve, poor fit]"
2,Cc1ccc2c(nc3s/c(=C/c4cccs4)c(=O)n32)c1C,active: 20 µM
3,O=C(Nc1ncc([N+](=O)[O-])s1)c1ccccc1Br,active: 50.1 µM
4,Cc1c(C(=O)O)cccc1-n1c(C)cc(C=O)c1C,active: 6.31 µM
5,CCN1CCCC1CNC(=O)c1cc2c(-c3cccc(OC)c3)nn(C)c2s1 (centres undefined),inactive
6,O=C1NC(=O)/C(=C\c2ccccc2Oc2ccc(F)c(F)c2)S1,"inconclusive: 31.6 µM [inhibitor, partial curve, poor fit]"
7,O=C(Nc1ccc2nc3n(c(=O)c2c1)CCCCC3)c1cc([N+](=O)[O-])ccc1F,"inconclusive: 56.2 µM [inhibitor, partial curve, poor fit]"
8,CCc1nnc(NC(=O)CSc2nc3[nH]c(=O)cc(O)c3s2)s1,"inconclusive: 28.2 µM [inhibitor, single point]"
9,CCc1ccc(CCC(=O)Nc2nc(CC(C)=O)ns2)o1,"inconclusive: 14.1 µM [inhibitor, partial curve, poor fit]"
10,COc1ccc(S(=O)(=O)Nc2ccc(F)c(F)c2)cc1Cl,inactive
11,Cc1nn2cc(-c3ccccc3)nc2[nH]c1=O,inactive
12,Cc1c(O)nc(SCC(=O)Nc2ccc3c4c(cccc24)CC3)n(-c2ccccc2)c1=O,inactive
13,CCn1c(=O)cc(SCC(=O)NCc2ccc(Cl)cc2)c2ccccc21,inactive
14,COC(=O)c1sc2nc(-c3ccco3)ccc2c1N,"inconclusive: 14.1 µM [inhibitor, partial curve, poor fit]"
15,COc1ccc(OCCCC(=O)Nc2nnc(C3CCCO3)s2)cc1 (centres undefined),inactive
16,O=C(Nc1nc(-c2ccco2)c(-c2ccco2)s1)c1ccco1,"inconclusive: 14.1 µM [inhibitor, full curve, poor fit]"
17,Cc1cccc2nc(CSc3nc4[nH]ncc4c(=O)n3-c3ccccc3Cl)cc(=O)n12,"inconclusive: 14.1 µM [inhibitor, partial curve]"
18,O=c1[nH]c(C(Cl)Cl)nc2sc3c(c12)CCN(Cc1ccccc1)C3,active: 39.8 µM
19,COC(=O)Cn1c(=O)c2c(n(Cc3ccccc3)c1=O)N/C(=C/c1ccc(OC)cc1)C2=O,inactive
20,O=C(COc1ccc(/C=N/NC(=O)c2cc3ccccc3o2)cc1Br)Nc1ccccc1,active: 0.891 µM
21,CC(=O)Nc1nnc(SCc2cc(=O)c(OC(=O)c3ccccc3)co2)s1,inactive
22,Cc1cc(C)n(Cc2ccc(Cl)nc2)n1,"inconclusive: 100 µM [inhibitor, partial curve, poor fit]"
23,CCN1CCN(Cc2ccc(NC(=O)c3cc(NC(=O)c4ccno4)cc(OC)c3)cc2C(F)(F)F)CC1,inactive

row,SMILES,Potency
1,O=C(O)c1ccc2nc(-c3cc4cc(Cl)ccc4oc3=O)[nH]c2c1,"inconclusive: 89.1 µM [inhibitor, single point]"
2,O=C(CCCCn1c(=O)c2ccccc2n(Cc2cccc(F)c2)c1=O)NCc1ccc2c(c1)OCO2,inactive
3,CCc1ccc(N2C(=O)CC(N(CC3CCCO3)C(=O)/C=C/C(=O)O)C2=O)cc1 (centres undefined),"inconclusive: 28.2 µM [inhibitor, partial curve]"
4,Cc1ccc(OCC(=O)NCC(c2ccc(Cl)cc2)N2CCOCC2)cc1C (centres undefined),"inconclusive: 100 µM [inhibitor, partial curve, poor fit]"
5,COc1cc(C2OCC3C(c4ccc(OC5OC(CO)C(O)C(O)C5O)c(OC)c4)OCC23)ccc1O (centres undefined),"inconclusive: 15.8 µM [inhibitor, full curve]"
6,O=C1c2cccnc2C(=O)N1C1CCCCC1,inactive
7,O=C1C=C(c2ccc3cc[nH]c3c2)C[C@@H](c2ccc3c(c2)OCO3)C1,active: 22.4 µM
8,O=c1[nH]c2cc(S(=O)(=O)CCO)ccc2o1,"inconclusive: 39.8 µM [inhibitor, partial curve]"
9,Cc1cc(C(=O)CCC(=O)Nc2ncccc2C)c(C)s1,"inconclusive: 44.7 µM [inhibitor, partial curve]"
10,O=C(O)c1cc(N/N=C/c2c(O)ccc3ccccc23)ccc1Cl,"inconclusive: 56.2 µM [inhibitor, partial curve, poor fit]"
11,COc1ccc(C)cc1-n1cnc2cc(C(=O)NC3CCCCCC3)ccc21,inactive
12,COc1cccc(CNC(=O)CN2C(=O)N(c3ccc(C)cc3C)S(=O)(=O)c3ccccc32)c1OC,"inconclusive: 79.4 µM [inhibitor, partial curve, poor fit]"
13,CC1CCCCN1S(=O)(=O)c1ccc(C(=O)Nc2sccc2C(N)=O)cc1 (centres undefined),"inconclusive: 79.4 µM [inhibitor, partial curve, poor fit]"
14,Cc1ccc(/C=C/C(=O)OCC(=O)N(C)c2c(N)n(Cc3ccccc3)c(=O)[nH]c2=O)o1,"inconclusive: 39.8 µM [inhibitor, single point]"
15,N#Cc1c(SCC(=O)Nc2ccccc2C(F)(F)F)sc2c(O)cc(=O)[nH]c12,"inconclusive: 50.1 µM [inhibitor, partial curve]"
16,O=C(N/N=C/c1ccc(OC(=O)c2ccc([N+](=O)[O-])cc2)cc1)c1cccnc1,inactive
17,COC(=O)c1c(NC(=O)CSc2nnc3ccccn23)sc2c1CCC2,"inconclusive: 89.1 µM [inhibitor, partial curve, poor fit]"
18,O=C(NC(Cc1ccc(O)cc1)C(=O)O)/C(=C/c1ccccc1)NC(=O)c1ccccc1 (centres undefined),"inconclusive: 100 µM [inhibitor, partial curve, poor fit]"
19,O=C(c1cc(-c2ccco2)nc2ccccc12)N1CCN(Cc2ccccc2)CC1,"inconclusive: 20 µM [inhibitor, partial curve, poor fit]"
20,CC1=NN(c2ccc(C)cc2)C(=O)/C1=C/c1ccc(-c2cc([N+](=O)[O-])ccc2O)o1,active: 20 µM
21,CCc1nnc(SCC(=O)Nc2cc(Cl)c(OC)cc2OC)c2cc3oc(C)cc3n12,inactive
22,CCn1c2ccc(/C(C)=N\O)cc2c2cc(/C(C)=N\O)ccc21,"inconclusive: 44.7 µM [inhibitor, partial curve, poor fit]"
23,O=C(NCc1ccco1)c1ccc([N+](=O)[O-])o1,active: 39.8 µM
